Reference: patent US20260013501A1, “HERBICIDAL DERIVATIVES” (SYNGENTA CROP PROTECTION AG, priority 2022, published 2026)
The name of at least one read-out is uncertain.

Experiments:
Type in all cases: in vivo
[1] = test system: Amaranthus retoflexus (AMARE); test: Post-emergence Test (Table B2), AMARE; set-up: key: five-point scale: 5=81-100%, 4=61-80%, 3=41-60%, 2=21-40%, 1=0-20% damage; conditions: evaluated after 13 days
Procedure: (§1) Seeds of a variety of test species are sown in standard soil in pots (Ipomoea hederacea (IPOHE), Zea mays (ZEAMX), Echinochloa crus-galli (ECHCG), Amaranthus palmeri (AMAPA), (Amaranthus retoflexus (AMARE), and (Setaria faberi (SETFA)). After 8 days cultivation under controlled conditions in a glasshouse (at 24° C./16° C., day/night; 14 hours light; 65% humidity), the plants are sprayed with an aqueous spray solution derived from the formulation of the technical active ingredient in acetone/water (50:50) solution containing 0.5% Tween 20 (polyoxyethelyene sorbitan monolaurate, CAS RN 9005-64-5). Rate of application is shown in g/ha in the tables below. The test plants are then grown in a glasshouse under controlled conditions in a glasshouse (at 24° C./16° C., day/night; 14 hours light; 65% humidity) and watered twice daily. After 13 days the test is evaluated for the percentage damage caused to the plant. The biological activities are shown in the following table on a five-point scale (5=81-100%; 4=61-80%; 3=41-60%; 2=21-40%; 1=0-20%; -=not tested).

[2] = test system: Echinochloa crus-galli (ECHCG); test: Post-emergence Test (Table B2), ECHCG; set-up: key: 5-point damage scale: 5=81-100%, 4=61-80%, 3=41-60%, 2=21-40%, 1=0-20%; conditions: evaluated after 13 days
Procedure: as §1

[3] = test system: Ipomoea hederacea (IPOHE); test: Post-emergence Test (Table B2), IPOHE; set-up: key: five-point scale: 5=81-100%, 4=61-80%, 3=41-60%, 2=21-40%, 1=0-20% damage; conditions: evaluated after 13 days
Procedure: as §1

[4] = test system: Amaranthus palmeri (AMAPA); test: Post-emergence Test (Table B2), AMAPA; set-up: key: five-point scale: 5=81-100%, 4=61-80%, 3=41-60%, 2=21-40%, 1=0-20% damage; conditions: evaluated after 13 days
Procedure: as §1

Zea mays (ZEAMX) = test: Post-emergence Test (Table B2), ZEAMX; set-up: key: 5-point damage scale: 5=81-100%, 4=61-80%, 3=41-60%, 2=21-40%, 1=0-20%; conditions: evaluated after 13 days
Procedure: as §1

Setaria faberi (SETFA) [5] = test: Post-emergence Test (Table B2), SETFA; set-up: key: five-point scale: 5=81-100%, 4=61-80%, 3=41-60%, 2=21-40%, 1=0-20% damage; conditions: rate 1000 g/Ha, evaluated after 13 days
Procedure: as §1

Setaria faberi (SETFA) [6] = test: Pre-emergence Test (Table B1), SETFA; conditions: Rate 250 g/Ha, evaluated after 13 days

CCn1c(Cc2cccc(Cl)c2)cc(=O)c(C(=O)O)c1-c1ccc(Cl)c(Cl)c1 [Compound 1, 6-[(3-chlorophenyl)methyl]-2-(3,4-dichlorophenyl)-1-ethyl-4-oxo-pyridine-3-carboxylic acid]
percentage damage caused to the plant, AMARE ([1]; rate 1000 g/Ha): 1 (1=0-20%) | percentage damage caused to the plant, ECHCG ([2]; rate 1000 g/Ha): 1 (1=0-20%) | percentage damage caused to the plant, IPOHE ([3]; rate 1000 g/Ha): 1 (1=0-20%) | percentage damage caused to the plant, AMAPA ([4]; rate 1000 g/Ha): 1 (1=0-20%)

CCn1c(Cc2cccc(C(F)(F)F)c2)cc(=O)c(C(=O)O)c1-c1ccc(Cl)c(Cl)c1 [Compound 8, 2-(3,4-dichlorophenyl)-1-ethyl-4-oxo-6-[[3-(trifluoromethyl)phenyl]methyl]pyridine-3-carboxylic acid]
percentage damage caused to the plant, IPOHE ([3]; rate 250 g/Ha): 1 (1=0-20%)

CCn1c(Cc2cc(Cl)cc(Cl)c2)cc(=O)c(C(=O)O)c1-c1ccc(Cl)c(Cl)c1 [Compound 10, 2-(3,4-dichlorophenyl)-6-[(3,5-dichlorophenyl)methyl]-1-ethyl-4-oxo-pyridine-3-carboxylic acid]
percentage damage caused to the plant, AMARE ([1]; rate 1000 g/Ha): 1 (1=0-20%) | percentage damage caused to the plant, IPOHE ([3]; rate 1000 g/Ha): 2 (2=21-40%) | percentage damage caused to the plant, AMAPA ([4]; rate 1000 g/Ha): 1 (1=0-20%)

CCn1c(Cc2ccccc2C)cc(=O)c(C(=O)O)c1-c1ccc(Cl)c(Cl)c1 [Compound 15, 2-(3,4-dichlorophenyl)-1-ethyl-6-(o-tolylmethyl)-4-oxo-pyridine-3-carboxylic acid]
percentage damage caused to the plant, AMARE ([1]; rate 1000 g/Ha): 1 (1=0-20%) | percentage damage caused to the plant, IPOHE ([3]; rate 1000 g/Ha): 1 (1=0-20%) | percentage damage caused to the plant, AMAPA ([4]; rate 1000 g/Ha): 1 (1=0-20%) | percentage damage caused to the plant, ZEAMX (Zea mays (ZEAMX); rate 1000 g/Ha): 1 (1=0-20%)

CCn1c(Cc2ccnc(C(F)(F)F)c2)cc(=O)c(C(=O)O)c1-c1ccc(Cl)c(Cl)c1 [Compound 21, 2-(3,4-dichlorophenyl)-1-ethyl-4-oxo-6-[[2-(trifluoromethyl)-4-pyridyl]methyl]pyridine-3-carboxylic acid]
percentage damage caused to the plant, ECHCG ([2]; rate 250 g/Ha): 2 (2=21-40%) | percentage damage caused to the plant, IPOHE ([3]; rate 250 g/Ha): 3 (3=41-60%) | percentage damage caused to the plant, ZEAMX (Zea mays (ZEAMX); rate 250 g/Ha): 1 (1=0-20%)

CCn1c(Cc2cccc(C(C)C)c2)cc(=O)c(C(=O)O)c1-c1ccc(Cl)c(Cl)c1 [Compound 23, 2-(3,4-dichlorophenyl)-1-ethyl-6-[(3-isopropylphenyl)methyl]-4-oxo-pyridine-3-carboxylic acid]
percentage damage caused to the plant, AMARE ([1]; rate 1000 g/Ha): 1 (1=0-20%) | percentage damage caused to the plant, AMAPA ([4]; rate 1000 g/Ha): 1 (1=0-20%)

CCn1c(Cc2ccccc2OC)cc(=O)c(C(=O)O)c1-c1ccc(Cl)c(Cl)c1 [Compound 24, 2-(3,4-dichlorophenyl)-1-ethyl-6-[(2-methoxyphenyl)methyl]-4-oxo-pyridine-3-carboxylic acid]
percentage damage caused to the plant, AMARE ([1]; rate 1000 g/Ha): 1 (1=0-20%) | percentage damage caused to the plant, AMAPA ([4]; rate 1000 g/Ha): 1 (1=0-20%)

CCn1c(Cc2ccc(C3CC3)cc2)cc(=O)c(C(=O)O)c1-c1ccc(Cl)c(Cl)c1 [Compound 25, 6-[(4-cyclopropylphenyl)meth-yl]-2-(3,4-dichlorophenyl)-1-ethyl-4-oxo-pyridine-3-carboxylic acid]
percentage damage caused to the plant, AMARE ([1]; rate 1000 g/Ha): 1 (1=0-20%) | percentage damage caused to the plant, AMAPA ([4]; rate 1000 g/Ha): 1 (1=0-20%) | percentage damage caused to the plant, ZEAMX (Zea mays (ZEAMX); rate 1000 g/Ha): 1 (1=0-20%)

CCn1c(Cc2ccc(OC(F)(F)F)cc2)cc(=O)c(C(=O)O)c1-c1ccc(Cl)c(Cl)c1 [Compound 26, 2-(3,4-dichlorophenyl)-1-ethyl-4-oxo-6-[[4-(trifluoromethoxy)phe-nyl]methyl]pyridine-3-carboxylic acid]
percentage damage caused to the plant, AMARE ([1]; rate 1000 g/Ha): 1 (1=0-20%) | percentage damage caused to the plant, IPOHE ([3]; rate 1000 g/Ha): 1 (1=0-20%) | percentage damage caused to the plant, AMAPA ([4]; rate 1000 g/Ha): 1 (1=0-20%)

CCn1c(Cc2cccc(Cl)c2Cl)cc(=O)c(C(=O)O)c1-c1ccc(Cl)c(Cl)c1 [Compound 27, 2-(3,4-dichlorophenyl)-6-[(2,3-dichlorophenyl)methyl]-1-ethyl-4-oxo-pyridine-3-carboxylic acid]
percentage damage caused to the plant, AMARE ([1]; rate 1000 g/Ha): 3 (3=41-60%) | percentage damage caused to the plant, ECHCG ([2]; rate 1000 g/Ha): 1 (1=0-20%) | percentage damage caused to the plant, IPOHE ([3]; rate 1000 g/Ha): 1 (1=0-20%) | percentage damage caused to the plant, AMAPA ([4]; rate 1000 g/Ha): 2 (2=21-40%) | percentage damage caused to the plant, ZEAMX (Zea mays (ZEAMX); rate 1000 g/Ha): 1 (1=0-20%)

CCn1c(Cc2cccc(OC(F)(F)F)c2)cc(=O)c(C(=O)O)c1-c1ccc(Cl)c(Cl)c1 [Compound 30, 2-(3,4-dichlorophenyl)-1-ethyl-4-oxo-6-[[3-(trifluoromethoxy)phenyl]methyl]pyridine-3-carboxylic acid]
percentage damage caused to the plant, AMARE ([1]; rate 1000 g/Ha): 1 (1=0-20%) | percentage damage caused to the plant, ECHCG ([2]; rate 1000 g/Ha): 1 (1=0-20%) | percentage damage caused to the plant, IPOHE ([3]; rate 1000 g/Ha): 1 (1=0-20%) | percentage damage caused to the plant, AMAPA ([4]; rate 1000 g/Ha): 1 (1=0-20%)

CCn1c(Cc2cccc(SC)c2)cc(=O)c(C(=O)O)c1-c1ccc(Cl)c(Cl)c1 [Compound 31, 2-(3,4-dichlorophenyl)-1-ethyl-6-[(3-methylsulfanylphenyl)methyl]-4-oxo-pyridine-3-carboxylic acid]
percentage damage caused to the plant, AMARE ([1]; rate 1000 g/Ha): 1 (1=0-20%) | percentage damage caused to the plant, AMAPA ([4]; rate 1000 g/Ha): 1 (1=0-20%)

CCn1c(Cc2ccc(OC)c(OC)c2)cc(=O)c(C(=O)O)c1-c1ccc(Cl)c(Cl)c1 [Compound 34, 2-(3,4-dichlorophenyl)-6-[(3,4-dimethoxyphenyl)meth-yl]-1-ethyl-4-oxo-pyridine-3-carboxylic acid]
percentage damage caused to the plant, AMARE ([1]; rate 1000 g/Ha): 1 (1=0-20%) | percentage damage caused to the plant, AMAPA ([4]; rate 1000 g/Ha): 1 (1=0-20%)

CCn1c(Cc2cccc(OC)c2OC)cc(=O)c(C(=O)O)c1-c1ccc(Cl)c(Cl)c1 [Compound 38, 2-(3,4-dichlorophenyl)-6-[(2,3-dimethoxyphenyl)meth-yl]-1-ethyl-4-oxo-pyridine-3-carboxylic acid]
percentage damage caused to the plant, AMARE ([1]; rate 1000 g/Ha): 1 (1=0-20%) | percentage damage caused to the plant, AMAPA ([4]; rate 1000 g/Ha): 1 (1=0-20%)

CCn1c(Cc2cc(O)cc(F)n2)cc(=O)c(C(=O)O)c1-c1ccc(Cl)c(Cl)c1 [Compound 104, 2-(3,4-dichlorophenyl)-1-ethyl-6-[(6-fluoro-4-hydroxy-2-pyridyl)methyl]-4-oxo-pyridine-3-carboxylic acid]
percentage damage caused to the plant, AMARE ([1]; rate 1000 g/Ha): 1 (1=0-20%) | percentage damage caused to the plant, ECHCG ([2]; rate 1000 g/Ha): 1 (1=0-20%) | percentage damage caused to the plant, AMAPA ([4]; rate 1000 g/Ha): 1 (1=0-20%) | percentage damage caused to the plant, ZEAMX (Zea mays (ZEAMX); rate 1000 g/Ha): 1 (1=0-20%)

CCn1c(Cc2ccc(O)nn2)cc(=O)c(C(=O)O)c1-c1ccc(Cl)c(Cl)c1 [Compound 107, 2-(3,4-dichlorophenyl)-1-ethyl-6-[(6-hydroxypyridazin-3-yl)methyl]-4-oxo-pyridine-3-carboxylic acid]
percentage damage caused to the plant, SETFA (Setaria faberi (SETFA) [5]): 1 (1=0-20%) | percentage damage caused to the plant, AMAPA ([4]; rate 1000 g/Ha): 1 (1=0-20%)

CCn1c(Cc2ccc(C#N)c(=O)[nH]2)cc(=O)c(C(=O)O)c1-c1ccc(Cl)c(Cl)c1 [Compound 114, 6-[(5-cyano-6-oxo-1H-pyridin-2-yl)methyl]-2-(3,4-dichlorophenyl)-1-ethyl-4-oxo-pyridine-3-carboxylic acid]
percentage damage caused to the plant, IPOHE ([3]; rate 250 g/Ha): 1 (1=0-20%)

CCOc1cccc(Cc2cc(=O)c(C(=O)O)c(-c3ccc(Cl)c(Cl)c3)n2CC)n1 [Compound 127, 2-(3,4-dichlorophenyl)-6-[(6-ethoxy-2-pyridyl)methyl]-1-ethyl-4-oxo-pyridine-3-carboxylicacid]
percentage damage caused to the plant, AMARE ([1]; rate 250 g/Ha): 1 (1=0-20%) | percentage damage caused to the plant, IPOHE ([3]; rate 250 g/Ha): 1 (1=0-20%) | percentage damage caused to the plant, AMAPA ([4]; rate 250 g/Ha): 1 (1=0-20%) | Pre-emergence Test, percentage damage caused to the plant (five-point scale), SETFA (Setaria faberi (SETFA) [6]): 1 (1=0-20%)
